# This is one part of the list.
# B1: OrfX (Escherichia coli), Q9X4B6_ECOLX (protein)
# chain: MIKIARIAVTLGLLSSLGAQAYAAGLVVNDNDLRNDLAWLSDRGVIHLSLSTWPLSQEEIARALKKAKPSYSSEQVVLARINQRLSALKADFRVTGYTSTDQPGTPQGFGQTQPADNSLGLAFNNSGEWWDVHLQGNVEGGERISNGSRFNANGAYGAVKFWNQWLSFGQVPQWWGPGYEGSLIRGDAMRPMTGFLMQRAEQAAPETWWLRWVGPWQYQISASQMNQYTAVPHAKIIGGRFTFTPFQSLELGASRIMQWGGEGRPQSFSSFWDGFTGHDNTGTDNEPGNQLAGFDFKFKLEPTLGWPVSFYGQMVGEDESGYLPSANMFLGGVEGHHGWGKDTVNWYVEAHDTRTNMSRTNYSYTHHIYKDGYYQQGYPLGDAMGGDGQLIAGKVELITEDNQRWSTRLVYAKVNPENQSINKAFPHADTLKGLQLGWSGDVYQSVRLNTSLWYTNANNSDSDDVGASAGIEIPFSL
# Assays:
# Assay in all cases: glycan array binding signal (z-score within array); higher = stronger binding
# Conditions in all cases: glycan notation: IUPAC condensed, linker removed
# [1] = target: Fuc(a1-2)[GalNAc(a1-3)]Gal(b1-3)GlcNAc(b1-2)Man(a1-3)[Fuc(a1-2)[GalNAc(a1-3)]Gal(b1-3)GlcNAc(b1-2)Man(a1-6)]Man(b1-4)GlcNAc(b1-4)GlcNAc
# Method in brief: (§1)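 The binding signal is a Z-score computed within each array. Data were drawn from 3228 arrays in the Consortium for Functional Glycomics database, restricted to those with a known protein sequence. Scores were averaged over arrays of the same protein sequence at different concentrations or buffers, and over linkers, and negative values can be taken as non-binding.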
# [2] = target: Fuc(a1-2)[GalNAc(a1-3)]Gal(b1-3)GlcNAc(b1-2)Man(a1-3)[Fuc(a1-2)[GalNAc(a1-3)]Gal(b1-3)GlcNAc(b1-2)Man(a1-6)]Man(b1-4)GlcNAc(b1-4)[Fuc(a1-6)]GlcNAc
# Method in brief: as §1
# [3] = target: Fuc(a1-2)[GalNAc(a1-3)]Gal(b1-3)GlcNAc(b1-3)GalNAc
# Method in brief: as §1
# [4] = target: Fuc(a1-2)[GalNAc(a1-3)]Gal(b1-3)GlcNAc(b1-6)GalNAc
# Method in brief: as §1
# [5] = target: Fuc(a1-2)[GalNAc(a1-3)]Gal(b1-4)Glc
# Method in brief: as §1
# [6] = target: Fuc(a1-2)[GalNAc(a1-3)]Gal(b1-4)GlcNAc
# Method in brief: as §1
# [7] = target: Fuc(a1-2)[GalNAc(a1-3)]Gal(b1-4)GlcNAc(b1-2)Man(a1-3)[Fuc(a1-2)[GalNAc(a1-3)]Gal(b1-4)GlcNAc(b1-2)Man(a1-6)]Man(b1-4)GlcNAc(b1-4)GlcNAc
# Method in brief: as §1
# [8] = target: Fuc(a1-2)[GalNAc(a1-3)]Gal(b1-4)GlcNAc(b1-2)Man(a1-3)[Fuc(a1-2)[GalNAc(a1-3)]Gal(b1-4)GlcNAc(b1-2)Man(a1-6)]Man(b1-4)GlcNAc(b1-4)[Fuc(a1-6)]GlcNAc
# Method in brief: as §1
# [9] = target: Fuc(a1-2)[GalNAc(a1-3)]Gal(b1-4)GlcNAc(b1-3)Gal(b1-4)GlcNAc
# Method in brief: as §1
# [10] = target: Fuc(a1-2)[GalNAc(a1-3)]Gal(b1-4)GlcNAc(b1-3)Gal(b1-4)GlcNAc(b1-3)Gal(b1-4)GlcNAc
# Method in brief: as §1
# [11] = target: Fuc(a1-2)[GalNAc(a1-3)]Gal(b1-4)GlcNAc(b1-3)GalNAc
# Method in brief: as §1
# [12] = target: Fuc(a1-2)[GalNAc(a1-3)]Gal(b1-4)[Fuc(a1-3)]GlcNAc
# Method in brief: as §1
# [13] = target: Fuc(a1-2)[GalNAc(a1-3)]Gal(b1-4)[Fuc(a1-3)]GlcNAc(b1-3)GalNAc
# Method in brief: as §1
# [14] = target: Fuc(a1-2)[GalNAc(a1-4)]Gal(b1-4)GlcNAc
# Method in brief: as §1
# [15] = target: Fuc(a1-2)[GalNAc(b1-3)]Gal
# Method in brief: as §1
# Fuc(a1-3)GlcNAc = target: Fuc(a1-3)GlcNAc
# Method in brief: as §1
# [16] = target: Fuc(a1-3)[Gal(b1-4)]Glc6S
# Method in brief: as §1
# [17] = target: Fuc(a1-3)[Gal(b1-4)]GlcNAc
# Method in brief: as §1
# [18] = target: Fuc(a1-3)[Gal(b1-4)]GlcNAc(b1-2)Man
# Method in brief: as §1
# [19] = target: Fuc(a1-3)[Gal(b1-4)]GlcNAc(b1-2)Man(a1-3)[Fuc(a1-3)[Gal(b1-4)]GlcNAc(b1-2)Man(a1-6)]Man(b1-4)GlcNAc(b1-4)GlcNAc
# Method in brief: as §1
# [20] = target: Fuc(a1-3)[Gal(b1-4)]GlcNAc(b1-2)Man(a1-3)[Fuc(a1-3)[Gal(b1-4)]GlcNAc(b1-2)Man(a1-6)]Man(b1-4)GlcNAc(b1-4)[Fuc(a1-6)]GlcNAc
# Method in brief: as §1
# [21] = target: Fuc(a1-3)[Gal(b1-4)]GlcNAc(b1-3)Gal(b1-3)[Fuc(a1-4)]GlcNAc
# Method in brief: as §1
# [22] = target: Fuc(a1-3)[Gal(b1-4)]GlcNAc(b1-3)GalNAc
# Method in brief: as §1
# [23] = target: Fuc(a1-3)[Gal(b1-4)]GlcNAc(b1-4)Gal(b1-4)[Fuc(a1-3)]GlcNAc
# Method in brief: as §1
# [24] = target: Fuc(a1-3)[Gal(b1-4)]GlcNAc(b1-4)Gal(b1-4)[Fuc(a1-3)]GlcNAc(b1-4)Gal(b1-4)[Fuc(a1-3)]GlcNAc
# Method in brief: as §1
# [25] = target: Fuc(a1-3)[Gal(b1-4)]GlcNAc(b1-6)GalNAc
# Method in brief: as §1
# [26] = target: Fuc(a1-3)[Gal(b1-4)]GlcNAc(b1-6)[Gal(b1-3)GlcNAc(b1-3)]Gal(b1-4)Glc
# Method in brief: as §1
# [27] = target: Fuc(a1-3)[Gal(b1-4)]GlcNAc(b1-6)[Neu5Ac(a2-3)Gal(b1-3)]GalNAc
# Method in brief: as §1
# [28] = target: Fuc(a1-3)[Gal(b1-4)]GlcNAc6S
# Method in brief: as §1
# [29] = target: Fuc(a1-3)[Gal3S(b1-4)]GlcNAc
# Method in brief: as §1
# [30] = target: Fuc(a1-3)[Gal3S(b1-4)]GlcNAc6S
# Method in brief: as §1
# [31] = target: Fuc(a1-3)[GalNAc(b1-4)]GlcNAc
# Method in brief: as §1
# [32] = target: Fuc(a1-3)[GalNAc(b1-4)]GlcNAc6S
# Method in brief: as §1
# [33] = target: Fuc(a1-3)[GalNAc3S(b1-4)]GlcNAc
# Method in brief: as §1
# Fuc(a1-4)GlcNAc = target: Fuc(a1-4)GlcNAc
# Method in brief: as §1
# Fuc(b1-3)GlcNAc = target: Fuc(b1-3)GlcNAc
# Method in brief: as §1
# Gal(a1-2)Gal = target: Gal(a1-2)Gal
# Method in brief: as §1
# Gal(a1-3)Gal = target: Gal(a1-3)Gal
# Method in brief: as §1
binder,measurement,setting,value
B1,glycan array binding signal (z-score),[1],-0.281
same,glycan array binding signal (z-score),[2],-0.266
same,glycan array binding signal (z-score),[3],-0.109
same,glycan array binding signal (z-score),[4],-0.339
same,glycan array binding signal (z-score),[5],-0.196
same,glycan array binding signal (z-score),[6],-0.165
same,glycan array binding signal (z-score),[7],-0.185
same,glycan array binding signal (z-score),[8],-0.32
same,glycan array binding signal (z-score),[9],-0.455
same,glycan array binding signal (z-score),[10],0.681
same,glycan array binding signal (z-score),[11],-0.266
same,glycan array binding signal (z-score),[12],0.042
same,glycan array binding signal (z-score),[13],1.18
same,glycan array binding signal (z-score),[14],0.046
same,glycan array binding signal (z-score),[15],-0.235
same,glycan array binding signal (z-score),Fuc(a1-3)GlcNAc,-0.094
same,glycan array binding signal (z-score),[16],0.241
same,glycan array binding signal (z-score),[17],-0.174
same,glycan array binding signal (z-score),[18],-0.185
same,glycan array binding signal (z-score),[19],-0.208
same,glycan array binding signal (z-score),[20],0.133
same,glycan array binding signal (z-score),[21],-0.278
same,glycan array binding signal (z-score),[22],-0.209
same,glycan array binding signal (z-score),[23],-0.319
same,glycan array binding signal (z-score),[24],-0.25
same,glycan array binding signal (z-score),[25],1.29
same,glycan array binding signal (z-score),[26],-0.356
same,glycan array binding signal (z-score),[27],-0.016
same,glycan array binding signal (z-score),[28],0.121
same,glycan array binding signal (z-score),[29],-0.155
same,glycan array binding signal (z-score),[30],2.97
same,glycan array binding signal (z-score),[31],-0.21
same,glycan array binding signal (z-score),[32],-0.277
same,glycan array binding signal (z-score),[33],-0.23
same,glycan array binding signal (z-score),Fuc(a1-4)GlcNAc,-0.15
same,glycan array binding signal (z-score),Fuc(b1-3)GlcNAc,-0.024
same,glycan array binding signal (z-score),Gal(a1-2)Gal,-0.296
same,glycan array binding signal (z-score),Gal(a1-3)Gal,0.29
